# About 1,800 (2.5%) of roughly 71,000 compounds were called active. The shares of active, inactive and inconclusive entries below differ from those in the screen. Calls follow the shape of the dose curve; as a rule, active = well fitted activation curve with a large enough effect in the signal ratio, with a control signal flat (not every such curve was filed as active); inconclusive = small, poorly fitted or top-dose-only effect, or effect the other way, or a change in a side signal; inactive = flat fitted curve, though single readings scatter; the % refers to the signal ratio. Where the call is inconclusive, the potency comes from a doubtful curve fit.
# Experiment: Cell signaling CRE-BLA (Fsk stim); as to activity change, negative = inhibition: % of control where 0% means no effect
# Details: CHO CRE-bla reporter (cAMP response element driving beta-lactamase), forskolin EC10, beta-lactamase ratio; activity change, negative = inhibition: at 38.2 µM (top of the series) unless noted
# How it was run: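 Beta-lactamase reporter under a cAMP responsive element in CHO cells; compounds tested in titration series against EC10 NKH 477, 3 h at 37 °C. Read-out: CCF4 FRET ratio 460nm/530nm (excitation 405nm) giving %Activity, fitted to AC50.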
# Potency is read from the fitted curve at half-maximal effect; tags tell the direction and shape of the fitted curve.
SMILES,Potency,"activity change, negative = inhibition"
CCOc1ccc2nc(NC(=O)c3ccoc3C)sc2c1,"inconclusive: 0.02 µM [rising, full curve]",–
C1=Nc2c(Nc3ccccc3)ncnc2Oc2ccccc21,inactive,–
c1ccc(CNc2ncnc3ccc(-c4cccnc4)cc23)cc1,–,inconclusive: 18.2%
O=C(Cl)c1cccc([N+](=O)[O-])c1,inactive,–
Cc1cc2c(=O)[nH]c(N)nc2nc1C,–,inactive: -5.82% [at 7.6 µM]
COc1cc2c(C(=O)N3CCN(C4CCCCC4)CC3)cn(CC(C)C)c(=O)c2cc1OC,"inconclusive: 10 µM [rising, partial curve]",–
c1nc(NC2CC2)c2cc(-c3ccoc3)ccc2n1,inactive,–
c1cnc(N2CCN(Cc3ccc4c(c3)OCO4)CC2)nc1,inactive,–
NCCC[C@@H](CC(=O)N[C@@H]1CCCC[C@H]1C(=O)N[C@H](CC(=O)N[C@@H](CCC(=O)O)CC(=O)O)Cc1ccccc1)NC(=O)C[C@H](Cc1c[nH]c2ccccc12)NC(=O)[C@@H]1CNCC[C@H]1N,inactive,–
COC(=O)CN(c1ccc(F)cc1)S(=O)(=O)c1ccc2c(c1)OCCO2,–,inconclusive: 1.58% [at 7.6 µM]
CCNc1ncc2nc(-c3ccc(Cl)cc3)c(=O)n(-c3ccc(OC)cc3)c2n1,"inconclusive: 1.58 µM [rising, full curve]",–
Cc1onc(-c2ccccc2)c1C(=O)N1CCOCC1,"inconclusive: 5.01 µM [falling, single point]",–
Cc1c(C(=O)OCC2CCCO2)[nH]c2c1C(=O)CC(c1ccc(N(C)C)cc1)C2 (stereo not drawn),–,inconclusive: -21.6%
O=C(NCc1ccc2c(c1)OCO2)c1ccc(NS(=O)(=O)c2ccc3c(c2)OCCO3)cc1,–,inconclusive: -24.1%
Cc1nn(CCC(=O)O)c2nc(-c3cccnc3)cc(C(F)(F)F)c12,active: 10 µM,–
COC(=O)c1cccc(Nc2nc3ccccc3nc2C)c1,"inconclusive: 3.98 µM [rising, full curve, poor fit]",–
O=C(CCS(=O)(=O)c1ccc(Br)s1)NCc1ccc2c(c1)OCO2,–,inconclusive: -19.3%
COc1ccc(OC)c(S(=O)(=O)Nc2ccc(C(N)=O)cc2)c1,inactive,–
O=C(NCCCN1CCCC1=O)c1ccc(Cl)c(NS(=O)(=O)c2ccc(F)cc2)c1,inactive,–
Cn1cnnc1Sc1nc2ccccc2nc1NS(=O)(=O)c1ccccc1,"inconclusive: 3.16 µM [falling, single point]",–
CN(C)CCOC(=O)[C@@H](c1ccccc1)C1(O)CCCC1,inactive,–

SMILES,Potency,"activity change, negative = inhibition"
CNc1nnc(-c2cc3ccccc3oc2=O)s1,"inconclusive: 7.94 µM [falling, partial curve]",–
O=C1CC(N2CCN(c3nc4ccccc4s3)CC2)C(=O)N1c1ccc(F)cc1 (stereo not drawn),"inconclusive: 0.398 µM [falling, partial curve, poor fit]",–
O=C(NCc1cccs1)c1cc2c(s1)-c1ccccc1OC2,"inconclusive: 15.8 µM [rising, single point]",–
Cn1c(=O)c(C(=O)CN2CCOCC2)c(N)n(Cc2ccccc2)c1=O,–,inconclusive: 15.2%
O=c1[nH]c2ccc(Cl)cc2c(=O)n1Cc1ccco1,"inconclusive: 25.1 µM [rising, single point]",–
CN(C)Cc1ccccc1-c1cncnc1NCc1cccs1,inactive,–
O=c1c(-c2ccc(F)cc2)nc2cnc(Oc3ccccc3)nc2n1C1CC1,inactive,–
Cc1nc2ccc(CCO)cc2s1,–,inconclusive: -0.261%
Cc1ccc(N2CCCCn3c2nc2c3c(=O)[nH]c(=O)n2C)cc1,"inconclusive: 12.6 µM [rising, partial curve]",–
N#Cc1c(NC(=O)CN2CCOCC2)oc(-c2ccccc2)c1-c1ccccc1,–,inconclusive: 20%
Cc1csc(NC(=O)CSc2nnc(-c3ccoc3C)n2CCc2ccccc2)n1,"inconclusive: 12.6 µM [rising, single point]",–
COC(=O)c1c(-c2ccc(F)cc2)noc1N,–,inconclusive: 15.4%
O=C(Nc1ccccc1)N1CC2(CCN(C(=O)c3cccc(F)c3)CC2)C1,inactive,–
Cc1ccc(C)c(-n2c(N)c(C(N)=O)sc2=S)c1,–,inconclusive: 3.37%
COc1cc(C2=NOC(C(=O)Nc3ccc(C(C)=O)cc3)C2)cc(OC)c1OC (stereo not drawn),"inconclusive: 10 µM [rising, partial curve]",–
COc1ccccc1N1CCN(C(=O)CCn2c(=O)[nH]c3ccsc3c2=O)CC1,–,inconclusive: -10.9%
Cc1cc(C)cc(N(CCC#N)C(=O)CSc2nc3nc(C)cc(C)n3n2)c1,active: 6.31 µM,–
O=C(O)c1ccc(Cl)cc1Cl,inactive,–
Cn1cccc1C(=O)N1CCC2(CCCN(c3ccccc3)C2)CC1,inactive,–
Cc1cccc(CNc2ncnc3ccc(-c4ccoc4)cc23)c1,–,inconclusive: -12.5%
Cc1cc(N=Cc2c(O)n(-c3ccc4c(c3)OCO4)c(=O)c3ccccc23)ccn1,"inconclusive: 12.6 µM [rising, partial curve]",–

SMILES,Potency,"activity change, negative = inhibition"
Cc1cccn2c(=O)c3cc(C#N)c(=O)n(Cc4cccnc4)c3nc12,active: 6.31 µM,–
Cc1oc(-c2cccs2)nc1CS(=O)CC(=O)NCCc1ccccc1 (stereo not drawn),–,inconclusive: -23%
CSc1cccc(NC(=O)C2CCN(S(=O)(=O)c3ccc(F)cc3)CC2)c1,–,inconclusive: -15.9%
CCCc1nc(NCc2ccco2)c(C#N)c2c1COC(C)(C)C2,active: 12.6 µM,–
COc1ccccc1-c1cc(C(F)(F)F)nc(S(=O)(=O)CCCC(=O)NC(C)C)n1,–,inconclusive: -8.08%
CCC(C)(C)NC(=O)C1CCN(c2nc(C)cc(C)n2)CC1,inactive,–
ON=C1CCCCC1,inactive,–
COCCNC(=O)CN(c1cc(Cl)ccc1OC)S(C)(=O)=O,inactive,–
CCCc1ncc(C(O)c2cccc3ccccc23)n1C (stereo not drawn),–,inconclusive: -5.29%
CCOP(C)(=O)C1(C(=O)OCc2ccccc2)CC1 (stereo not drawn),"inconclusive: 0.0251 µM [rising, single point]",–
COc1ccc(OC)c(NC=C2C(=O)OC3(CCCCC3)OC2=O)c1,"inconclusive: 15.8 µM [rising, single point]",–
C=CCn1c(SCC(=O)Nc2ccc3c(c2)OCO3)nc2ccccc2c1=O,"inconclusive: 12.6 µM [rising, partial curve]",–
COc1cc2c(C(=O)NCc3ccccn3)cn(CC(C)C)c(=O)c2cc1OC,active: 7.94 µM,–
Nc1ccc(C2CCCc3nonc32)c2nonc12 (stereo not drawn),–,inconclusive: -14.6%
CCCCCn1c(Br)nc2c1c(=O)n(CC(N)=O)c(=O)n2C,–,inconclusive: 13.6%
O=C(O)c1cc2ccccc2c(S(=O)(=O)O)c1O,–,inactive: -9.09% [at 7.6 µM]
CCN(CC(=O)Nc1c(C(=O)OC)[nH]c2ccccc12)c1ccc2c(c1)OCO2,"inconclusive: 15.8 µM [rising, partial curve]",–
CC[N+](CC)(CC)CCOc1ccc(/C=C\c2ccccc2)cc1,inactive,–
CCOc1ccc(OCc2ccc(C(=O)Nc3ccc(Cl)cn3)o2)cc1,"inconclusive: 25.1 µM [rising, single point]",–
O=C(Nc1ccc(F)cc1)c1ccc(S(=O)(=O)NCC2CCCO2)cc1 (stereo not drawn),inactive,–
O=c1c(-c2ccccc2)nc2cnc(N3CCOCC3)nc2n1C[C@H]1CCCO1,active: 2 µM,–

SMILES,Potency,"activity change, negative = inhibition"
O=C(c1cnccn1)N1CCC2(CCN(Cc3ccccc3)CC2)CC1,inactive,–
CC1CCC(NC(=O)c2ccc(CS(=O)(=O)Cc3ccccc3F)o2)CC1 (stereo not drawn),–,inconclusive: -26.2%
Cc1cc(C)c2c(C)nn(C3CCCCC3)c2n1,"inconclusive: 12.6 µM [rising, single point]",–
COc1cccc(-c2nc(Nc3ccncc3)c3ccccc3n2)c1,"inconclusive: 12.6 µM [rising, partial curve]",–
CCOC(=O)C(C)Sc1nc2c(cnn2-c2ccc(C)cc2)c(=O)[nH]1 (stereo not drawn),"inconclusive: 15.8 µM [rising, partial curve, poor fit]",–
O=c1[nH]cnc2scc(-c3cccs3)c12,"inconclusive: 10 µM [rising, partial curve]",–
CN(C)CC[C@H](c1ccc(Br)cc1)c1ccccn1,inactive,–
O=C(c1cc2nc(-c3ccco3)cc(C(F)(F)F)n2n1)N1CCCCCC1,"inconclusive: 12.6 µM [rising, partial curve]",–
CCOc1cc(C(=O)NC)cc(OCC)c1OCC,"inconclusive: 5.01 µM [falling, single point]",–
Cc1cccc(-c2nnn(CC/C(N)=N/O)n2)c1,inactive,–
CC(C)(C)Sc1nc(O)cc(=O)[nH]1,inactive,–
COc1ccc(-c2nc(CCNC(=O)c3ccco3)cs2)cc1OC,"inconclusive: 3.98 µM [rising, partial curve]",–
CC(C)(C)c1ccc(S(=O)(=O)/C=C\C#N)cc1,"inconclusive: 31.6 µM [rising, single point]",inconclusive: -25.3%
Cc1c2c(nc3c(C(=O)NC4CCCCC4C)cnn13)CCCC2 (stereo not drawn),"inconclusive: 3.98 µM [rising, partial curve]",–
CCOc1ccc2c(O)csc2c1,inactive,–
c1ccc(CCNC2=NCCCS2)cc1,–,inconclusive: -1.34%
O=C(c1cccs1)n1cc(C(=S)N2CCOCC2)c2ccccc21,"inconclusive: 3.16 µM [rising, partial curve, poor fit]",–
CC(C)C(=O)Nc1nnc(Cc2ccccc2)s1,"inconclusive: 5.01 µM [rising, single point]",–
CC1(C)NC(=O)N(CC(O)COc2ccc(-c3ccc(C#N)cc3)cc2)C1=O (stereo not drawn),–,inconclusive: -6.05%
